Source: PubChem BioAssay AID1460 (National Center for Advancing Translational Sciences (NCATS), 2008)
Among all 270,000 compounds or so, about 5,800 (2.1%) were called active. The shares of active, inactive and inconclusive entries below differ from those in the screen. Calls come from the whole dose curve; as a rule, active = well fitted inhibition curve with a large enough effect; inconclusive = small, poorly fitted or top-dose-only effect; inactive = flat fitted curve, though single readings scatter. A potency beside an inconclusive call is a rough fit, not a confirmed value.

These compounds were tested against Microtubule-associated protein tau (Homo sapiens) (UniProt P10636) (assay: qHTS for Inhibitors of Tau Fibril Formation, Thioflavin T Binding). Conditions: recombinant tau K18 P301L (four-repeat tau fragment), heparin-induced fibrillization, ThT fluorescence; series mostly up to 57.4 µM.
Method in brief: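 Aggregation was driven by heparin (20 uM final) acting on recombinant tau […] bearing P301L in 100 mM sodium acetate pH 7; fibrils were detected with Thioflavin T.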
Note: nearly all actives have a fitted effect of over 55% in size.
Potency is the fitted concentration of half-maximal effect; tags give direction and shape of the fitted curve.

Chain of UniProt P10636 (P10636 whole entry, looked up, the tested form may be a part): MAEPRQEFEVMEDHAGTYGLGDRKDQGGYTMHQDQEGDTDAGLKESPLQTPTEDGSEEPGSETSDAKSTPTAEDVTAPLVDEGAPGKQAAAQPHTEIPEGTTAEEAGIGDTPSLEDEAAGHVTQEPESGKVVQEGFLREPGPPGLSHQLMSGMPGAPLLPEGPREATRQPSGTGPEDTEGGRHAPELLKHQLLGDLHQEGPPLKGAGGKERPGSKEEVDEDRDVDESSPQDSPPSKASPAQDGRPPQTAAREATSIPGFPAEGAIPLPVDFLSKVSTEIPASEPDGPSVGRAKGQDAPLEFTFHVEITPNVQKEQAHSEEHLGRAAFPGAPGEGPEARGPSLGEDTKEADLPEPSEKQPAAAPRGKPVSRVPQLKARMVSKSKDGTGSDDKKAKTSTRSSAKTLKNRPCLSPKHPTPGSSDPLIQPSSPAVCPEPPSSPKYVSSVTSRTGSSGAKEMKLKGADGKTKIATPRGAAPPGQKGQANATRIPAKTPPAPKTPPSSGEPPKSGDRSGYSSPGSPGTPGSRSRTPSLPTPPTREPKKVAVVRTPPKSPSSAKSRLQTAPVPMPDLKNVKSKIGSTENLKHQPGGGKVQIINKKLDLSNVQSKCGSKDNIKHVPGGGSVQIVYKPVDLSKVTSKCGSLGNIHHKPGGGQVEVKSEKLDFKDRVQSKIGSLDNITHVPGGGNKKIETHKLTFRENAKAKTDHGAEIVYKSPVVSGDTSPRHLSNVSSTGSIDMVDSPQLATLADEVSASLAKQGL

Compound	Potency
C=CCC(C)(O)C(=O)OCC (configuration not stated)	inactive
Cc1cc(=O)n2nc(N3CCC(C(=O)Nc4ccc(Br)c(C)c4)CC3)sc2n1	inconclusive: 7.94 µM [inhibitor, partial curve]
O=C(CSc1ccc(-c2ccccc2)nn1)Nc1ccc2c(c1)OCCO2	inconclusive: 17.8 µM [inhibitor, partial curve]
N#CC1=C(S)N(c2ccccc2)C(c2ccc(-c3cccc(Cl)c3)o2)NC1=O (configuration not stated)	active: 22.4 µM
O=C1OCC(CO)(CO)N=C1NNc1ccccc1Cl	inactive
O=C(Cc1ccc(Cl)cc1)NC1CC(=O)N(c2ccc3c(c2)OCCO3)C1 (configuration not stated)	inactive
Cc1ccc(NN2C(=O)C=C(c3ccc(Cl)cc3)C2=O)cc1	inconclusive: 25.1 µM [inhibitor, partial curve]
COc1ccc(-c2nnc3sc(C(C)N4C(=O)c5ccccc5C4=O)nn23)cc1 (configuration not stated)	inactive
Cc1cccc(CNC(=O)C2CCN(c3nn4cc(-c5ccc(F)cc5)nc4s3)CC2)c1	inactive
O=C(Nc1nc2ccccc2s1)Nc1ccc([N+](=O)[O-])cc1Cl	inconclusive: 14.1 µM [inhibitor, partial curve]
O=C(OCc1cc(=O)n2nc(C3CC3)sc2n1)c1cccc(NC(=O)c2ccccc2Cl)c1	inconclusive: 12.6 µM [inhibitor, partial curve]
COc1ccc(-c2cn(-c3cccc(C)c3)c(=O)[nH]2)cc1OC	inconclusive: 39.8 µM [inhibitor, single point]
COCCN(C(=O)CNC(=O)c1cccs1)C(C(=O)NC1CCCC1)c1cccs1 (configuration not stated)	inactive
Cc1cccc2sc(NC(=O)CNS(=O)(=O)c3ccc(Br)s3)nc12	inconclusive: 12.6 µM [inhibitor, partial curve]
Cc1cccc(-c2nc(=S)c3c(n2Cc2ccco2)CCCC3)c1	inactive
N#Cc1cc([N+](=O)[O-])ccc1NC(=O)COC(=O)CCC1CCCCC1	inconclusive: 17.8 µM [inhibitor, single point]
CCn1c(C)nc2cc(C(=O)NNC(=S)Nc3ccc(C)cc3)ccc21	inconclusive: 22.4 µM [inhibitor, single point]
Cc1ccnc(Sc2ccc([N+](=O)[O-])cc2[N+](=O)[O-])n1	inconclusive: 22.4 µM [inhibitor, partial curve]
CCOc1ccccc1C(=O)Nc1cccc(-c2nc3ccccc3s2)c1	inconclusive: 3.16 µM [inhibitor, partial curve]
CNc1ccc(/C=C2\COc3ccccc3C2=O)cc1[N+](=O)[O-]	active: 1.58 µM
CCC(=O)N1CCCc2cc(S(=O)(=O)N3CCC(C(=O)NC4CCC(C)CC4)CC3)ccc21 (configuration not stated)	inactive
O=C(CSc1nc2c([nH]c3ccccc32)c(=O)n1-c1ccccc1F)Nc1cccc(Cl)c1	inactive
CCC(=O)N1CCc2cc(S(=O)(=O)CCC(=O)Nc3cc(Cl)ccc3OC)ccc21	inconclusive: 22.4 µM [inhibitor, partial curve]
CCOC(=O)c1sc2nc(C)[nH]c(=S)c2c1C	inconclusive: 8.91 µM [inhibitor, partial curve]

Compound	Potency
O=C1c2ccccc2C(Cc2ccnc(F)c2)(Cc2ccnc(F)c2)c2ccccc21	inactive
CN1/C(=C/C(=O)C2CC2)C(C)(C)c2ccccc21	inactive
COc1ccccc1-c1cc(C(=O)Nc2cccnc2)no1	inconclusive: 28.2 µM [inhibitor, partial curve]
S=C(NCc1cccs1)Nc1ccc(Cl)cc1	inconclusive: 17.8 µM [inhibitor, partial curve]
CC(C)CCC(CC(C)O)c1n[nH]c(=S)n1-c1ccccc1 (configuration not stated)	inactive
CN(C)c1cccc2cccc(N(C)C)c12	inconclusive: 35.5 µM [inhibitor, partial curve]
CC(Nc1oc(-c2ccc(COc3ccccc3)o2)nc1C#N)c1ccccc1 (configuration not stated)	inactive
O=C(N/N=C/c1cccc([N+](=O)[O-])c1)c1cccc(Br)c1	inactive
CCc1nnc(NC(=O)c2nc(SCc3cccc(C)c3)ncc2Cl)s1	inconclusive: 12.6 µM [inhibitor, partial curve]
COc1ccc2nc3ccccc3nc2c1NC(=O)c1ccccc1Cl	inconclusive: 10 µM [inhibitor, partial curve]
CN1CCCc2cc(C=O)ccc21	inconclusive: 39.8 µM [inhibitor, single point]
CCOc1ccc(C(c2c(O)cc(C)n(Cc3ccco3)c2=O)N2CCN(C)CC2)cc1 (configuration not stated)	inconclusive: 8.91 µM [inhibitor, partial curve]
CC1CCN(C(=O)Cn2cc(SCC(=O)NCc3ccccc3)c3ccccc32)CC1	inactive
CCOc1ccc(-c2cn3c(n2)sc2cc(C(=O)NC(C)C45CC6CC(CC(C6)C4)C5)ccc23)cc1 (configuration not stated)	inactive
O=C(CSC1=NCCN1)Nc1ccccc1[N+](=O)[O-]	inconclusive: 28.2 µM [inhibitor, single point]
CC1CCCN(c2ccc(C(=O)Nc3cccnc3)cc2[N+](=O)[O-])C1 (configuration not stated)	inconclusive: 17.8 µM [inhibitor, partial curve]
COc1ccc(C2C(C(=O)/C=C/c3ccco3)=C(O)C(=O)N2CCN2CCOCC2)cc1 (configuration not stated)	inconclusive: 31.6 µM [inhibitor, single point]
CC1CCCCN1C(=O)c1ccc(OC2CCN(S(=O)(=O)N(C)C)CC2)cc1 (configuration not stated)	inconclusive: 12.6 µM [inhibitor, partial curve]
O=C(COC(=O)c1n[nH]c2ccccc12)Nc1ccc(Cl)cc1[N+](=O)[O-]	inconclusive: 35.5 µM [inhibitor, single point]
Cn1c(=O)c2c(SCc3cccnc3)nc(CC(C)(C)C)nc2n(C)c1=O	inconclusive: 31.6 µM [inhibitor, single point]
O=C1N=C(N2CCOCC2)S/C1=C1\C(=O)N(Cc2ccccc2)c2ccccc21	inconclusive: 5.01 µM [inhibitor, partial curve]
CC(C)Cn1c(O)c(N=NC(=O)c2cccc(S(=O)(=O)N3CCCCC3)c2)c2ccccc21	inconclusive: 8.91 µM [inhibitor, full curve]
CC1=CS/C(=C(/C#N)C(=O)N2CCCCC2)N1c1ccccc1	inactive
Cc1ccc(NC(=O)CSCc2cc(=O)c3ccccc3[nH]2)c(C)c1	inactive

Compound	Potency
Cn1cccc1CNC1CCCCC1	inactive
O=C(/C=C/c1cccc([N+](=O)[O-])c1)c1ccccc1	inconclusive: 39.8 µM [inhibitor, single point]
CN(C1=C(NC(=O)c2ccccc2)C(=O)c2ccccc2C1=O)C1CCS(=O)(=O)C1 (configuration not stated)	active: 14.1 µM
O=C(/C=C/c1cccc2ccccc12)c1ccncc1	inconclusive: 17.8 µM [inhibitor, partial curve]
O=C(NC(=S)Nc1ccc(-c2ccc(CO)o2)cc1)c1cccs1	inconclusive: 2.24 µM [inhibitor, full curve]
CCn1c(CSCc2ccc(C)cc2)nnc1SCC(=O)N1CCN(c2ccccc2)CC1	inconclusive: 39.8 µM [inhibitor, single point]
CCO/N=C(/c1nonc1N)N1CCN(c2ccc([N+](=O)[O-])cc2)CC1	inconclusive: 1.41 µM [inhibitor, full curve]
CCn1c(C)cc(/C=C2\NC(=O)N(CC(=O)Nc3cccc(C)c3)C2=O)c1C	inconclusive: 28.2 µM [inhibitor, partial curve]
COc1cc(CNc2ccc3[nH]c(=O)[nH]c3c2)cc(Cl)c1OCc1ccc(F)cc1	inconclusive: 2 µM [inhibitor, full curve]
O=C(COC(=O)c1c2c(nc3ccccc13)CCCC2)c1ccc(Br)s1	inconclusive: 14.1 µM [inhibitor, partial curve]
Cc1nn(C(C)(C)C)c(OC(=O)c2c(F)cccc2F)c1Sc1ccccc1	inactive
Cc1ccc(NCC(=O)c2ccc([N+](=O)[O-])cc2)cc1	active: 17.8 µM
CCOC(=O)Cn1c(=O)n(-c2ccc(Cl)cc2)c2nc(-c3ccc(Cl)cc3)nc(C(N)=O)c21	inactive
Cc1ccc(C(O)(COC(=O)C(C)C)COC(=O)C(C)C)c(O)c1	inconclusive: 1.12 µM [inhibitor, single point]
Cc1cc2oc(C(=O)Nc3c(C)n(C)n(-c4ccccc4)c3=O)cc(=O)c2cc1C	inactive
CCN(CC)c1ccc(/C=C(\C#N)C(N)=O)cc1	inconclusive: 17.8 µM [inhibitor, partial curve]
COc1cc(/C=C2\SC(=S)N(CC(=O)Nc3ccc(O)cc3)C2=O)cc(OC)c1OC	inconclusive: 10 µM [inhibitor, partial curve]
O=C1CC(=O)N(Cc2ccco2)C(=S)N1	inconclusive: 22.4 µM [inhibitor, partial curve]
O=C(c1cc2nc(-c3ccc(F)cc3)cc(C(F)(F)F)n2n1)N1CCCCC1c1cccnc1 (configuration not stated)	inconclusive: 22.4 µM [inhibitor, single point]
CCc1nnc(NC(=O)C2COc3ccccc3O2)s1 (configuration not stated)	inactive
CCOc1ccc(NC(=O)c2ccc(N)cc2)cc1	inactive
CCSC1(SCC)N=C(N)C2(C#N)C(c3ccc(F)cc3)C12C#N (configuration not stated)	inconclusive: 22.4 µM [inhibitor, partial curve]
COc1ccc(C(=O)OCc2cc(=O)n3nc(C4CC4)sc3n2)cc1OC	inconclusive: 8.91 µM [inhibitor, partial curve, poor fit]
CCCOc1ccc(-c2cnc(N)s2)cc1	inconclusive: 10 µM [inhibitor, partial curve]
